Results as given in paper PMC10193233.
Substitutions are numbered along the chain they refer to. Names and notes keep the numbering of the source. These are yes or no findings as the source states them, for the method shown. Binding seen in cells or lysates may run through a third protein. Some entries that bind do so weakly or less than the wild type. Sequences can lack the tags named with a protein. Each block holds one binder with its values, some of them ahead of it.

Molecular target: T1, Protein A-tagged Nem1 (S. cerevisiae) (UniProt P38757)
T1 sequence: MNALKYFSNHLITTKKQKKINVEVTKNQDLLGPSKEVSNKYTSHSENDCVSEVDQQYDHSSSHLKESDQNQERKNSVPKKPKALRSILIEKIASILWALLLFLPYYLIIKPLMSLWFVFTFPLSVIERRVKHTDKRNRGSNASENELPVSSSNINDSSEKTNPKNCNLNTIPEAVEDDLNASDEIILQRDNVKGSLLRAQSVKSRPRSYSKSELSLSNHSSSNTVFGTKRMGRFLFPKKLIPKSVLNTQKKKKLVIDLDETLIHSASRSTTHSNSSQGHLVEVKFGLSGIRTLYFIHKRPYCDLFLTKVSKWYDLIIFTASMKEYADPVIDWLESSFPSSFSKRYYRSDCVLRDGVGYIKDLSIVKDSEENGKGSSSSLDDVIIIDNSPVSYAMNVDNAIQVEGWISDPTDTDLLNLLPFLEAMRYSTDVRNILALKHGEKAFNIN
Test: co-IP; protein A-tagged Nem1 coexpressed with Spo7 (WT or mutant) in nem1Δ spo7Δ pah1Δ yeast; Nem1-PtA isolated from cell extracts by IgG-Sepharose affinity chromatography; immunoblot with anti-Nem1 and anti-Spo7; complex scored by presence of Spo7 in the affinity-purified Nem1 preparation

binding: no binding
B1: Spo7 ΔCR3 (215–223) (protein, UniProt P18410)
chain: MEPESIGDVGNHAQDDSASIVSGPRRRSTSKTSSAKNIRNSSNISPASMIFRNLLILEDDLRRQAHEQKILKWQFTLFLASMAGVGAFTFYELYFTSDYVKGLHRVILQFTLSFISITVVLFHISGQYRRTIVIPRRFFTSTNKGIRQFNVKLVKVQSTWDEKYTDSVRFVSRTIAYCNIYCLKKFLWLKDDNAIVKFWKSVTIQSQPRIGAVDFSAEIREGWEIYRDEFWAREGARRRKQAHELRPKSE

binding: no binding
B7: Spo7 S141R/T142R/N143R (protein, UniProt P18410 1-259)
chain: MEPESIGDVGNHAQDDSASIVSGPRRRSTSKTSSAKNIRNSSNISPASMIFRNLLILEDDLRRQAHEQKILKWQFTLFLASMAGVGAFTFYELYFTSDYVKGLHRVILQFTLSFISITVVLFHISGQYRRTIVIPRRFFTRRRKGIRQFNVKLVKVQSTWDEKYTDSVRFVSRTIAYCNIYCLKKFLWLKDDNAIVKFWKSVTIQSQPRIGAVDVKLVLNPRAFSAEIREGWEIYRDEFWAREGARRRKQAHELRPKSE

binding: no binding
B9: Spo7 ΔCR2 (127–143) (protein, UniProt P18410)
chain: MEPESIGDVGNHAQDDSASIVSGPRRRSTSKTSSAKNIRNSSNISPASMIFRNLLILEDDLRRQAHEQKILKWQFTLFLASMAGVGAFTFYELYFTSDYVKGLHRVILQFTLSFISITVVLFHISGKGIRQFNVKLVKVQSTWDEKYTDSVRFVSRTIAYCNIYCLKKFLWLKDDNAIVKFWKSVTIQSQPRIGAVDVKLVLNPRAFSAEIREGWEIYRDEFWAREGARRRKQAHELRPKSE

The next lines start with the binder.

B2: Spo7 (WT) (protein, UniProt P18410 1-259)
chain: B7 chain with R141S, R142T, R143N
binding: binds

B3: Spo7 L217A (protein, UniProt P18410 1-259)
chain: B7 chain with R141S, R142T, R143N, L217A
binding: binds

B4: Spo7 L219A (protein, UniProt P18410 1-259)
chain: B7 chain with R141S, R142T, R143N, L219A
binding: binds

B5: Spo7 S141A/T142A/N143A (protein, UniProt P18410 1-259)
chain: B7 chain with R141A, R142A, R143A
binding: binds

B6: Spo7 L217R (protein, UniProt P18410 1-259)
chain: B7 chain with R141S, R142T, R143N, L217R
binding: no binding

B8: Spo7 L219R (protein, UniProt P18410 1-259)
chain: B7 chain with R141S, R142T, R143N, L219R
binding: no binding
